# In publication PMC4336329 (PLoS ONE, 2015):
# Out of some 310,000 compounds screened, about 2,200 (0.71%) showed an effect of 50% or more. Effects have a minus sign here. The list shows a part of the results.
# Biological target: human ether-à-go-go-related gene (hERG) potassium channel (human, UniProt Q12809)
# Experiment: primary screen, population patch clamp on CHO cells stably expressing hERG
# human ether-à-go-go-related gene (hERG) potassium channel, sequence (Q12809 whole entry, looked up): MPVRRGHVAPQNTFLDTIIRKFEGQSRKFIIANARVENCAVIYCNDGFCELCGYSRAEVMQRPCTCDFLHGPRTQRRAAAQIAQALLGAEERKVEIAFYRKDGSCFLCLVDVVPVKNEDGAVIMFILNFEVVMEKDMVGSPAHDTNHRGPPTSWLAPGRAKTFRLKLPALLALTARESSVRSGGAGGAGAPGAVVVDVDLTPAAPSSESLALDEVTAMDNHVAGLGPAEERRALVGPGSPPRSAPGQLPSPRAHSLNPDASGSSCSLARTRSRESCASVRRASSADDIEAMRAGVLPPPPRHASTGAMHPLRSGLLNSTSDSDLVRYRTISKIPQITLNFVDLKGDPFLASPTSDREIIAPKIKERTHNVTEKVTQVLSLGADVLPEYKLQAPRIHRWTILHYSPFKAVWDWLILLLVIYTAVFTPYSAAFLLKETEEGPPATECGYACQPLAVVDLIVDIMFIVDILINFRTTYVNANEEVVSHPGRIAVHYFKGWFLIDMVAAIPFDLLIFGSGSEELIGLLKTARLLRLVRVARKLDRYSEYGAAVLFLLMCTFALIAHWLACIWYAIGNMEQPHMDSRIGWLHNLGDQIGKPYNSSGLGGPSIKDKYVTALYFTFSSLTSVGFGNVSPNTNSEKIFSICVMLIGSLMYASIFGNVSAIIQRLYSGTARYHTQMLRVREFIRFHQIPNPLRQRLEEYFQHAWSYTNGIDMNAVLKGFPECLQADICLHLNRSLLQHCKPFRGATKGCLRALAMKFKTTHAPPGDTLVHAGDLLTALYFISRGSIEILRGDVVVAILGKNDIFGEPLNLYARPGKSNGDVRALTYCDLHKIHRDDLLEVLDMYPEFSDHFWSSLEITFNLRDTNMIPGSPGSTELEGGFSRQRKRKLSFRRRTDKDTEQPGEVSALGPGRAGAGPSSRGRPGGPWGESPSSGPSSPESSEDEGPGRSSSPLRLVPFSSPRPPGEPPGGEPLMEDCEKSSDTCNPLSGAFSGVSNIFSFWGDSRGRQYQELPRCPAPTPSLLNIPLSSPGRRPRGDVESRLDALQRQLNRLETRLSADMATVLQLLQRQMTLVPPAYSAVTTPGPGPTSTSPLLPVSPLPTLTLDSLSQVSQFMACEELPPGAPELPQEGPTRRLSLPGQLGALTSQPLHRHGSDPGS
row,Structure (SMILES),"hERG current change (%, negative = inhibition) at 1uM [%]"
1,Cn1cnnc1SCCOc1ccc(Cl)cc1,4.34
2,Cc1cc(C(=O)Nc2ccc3[nH]ccc3c2)no1,13.4
3,O=C1CN(C(=O)COC(=O)Cc2ccsc2)c2ccccc2N1,-4.73
4,Cc1cc(C)n(-c2cc(Oc3ccccc3)ncn2)n1,11
5,Cc1nn(Cc2ccccc2)c(=O)n1N(C)c1ncc(C(F)(F)F)cc1Cl,5.61
6,COc1ccc(-c2nc(CS(=O)CC(=O)NC3CCCCC3C)c(C)o2)cc1 (centres unmarked),12.6
7,CC(CCc1ccccc1)C(=O)NO (centres unmarked),10.1
8,Cc1cc2cc3c(C)cc(=O)oc3c(C)c2o1,18.6
9,CN(C)CCCNc1ncc(C(F)(F)F)cc1Cl,10.3
10,COCCNC(=O)CSc1nc2ccc(N3CCOCC3)cc2c(=O)n1CCc1ccccc1,-21.3
11,COc1ccc(C)cc1-n1nnnc1SCC(=O)NC(=O)NCc1ccco1,16.7
12,CCCNCC(O)Cn1c2ccccc2n2c(=O)cc(C)c(C#N)c12 (centres unmarked),7.54
13,CS(=O)(=O)N(CC(=O)N1CCN(c2ccc(F)cc2)CC1)c1cccc(Cl)c1,-5.21
14,O=C(COC(=O)c1cccc(S(=O)(=O)Nc2ccc(F)cc2)c1)NCCN1C(=O)CSC1=O,17.9
15,Cc1cccc(-n2c(SCC(=O)Nc3cccc(S(=O)(=O)NC4=NCCCCC4)c3)nc3ccccc3c2=O)c1C,3.92
16,CCS(=O)(=O)c1nc(S(=O)(=O)c2ccc(C)cc2)c(NCCCN2CCOCC2)s1,8.76
17,COc1ccc(-c2cc(C(=O)N(C)CC(=O)Nc3ccccc3Cl)c3ccccc3n2)cc1OC,5.54
18,COC(=O)CN(C#N)c1nc(NC(C)C)nc(OC)n1,8.06
19,Cc1ccc(Cl)cc1NC(=O)Nc1c(C)n(C)n(-c2ccccc2)c1=O,5.58
20,N#CCSc1nc2c(sc(=S)n2Cc2ccco2)c(=O)n1-c1ccc(F)cc1,4.84
21,O=C(Cc1ccc(-n2cccc2)cc1)NC1CCCCC1,1.44
22,Cc1ccc(NC(=O)NNC(=O)c2sccc2-n2cccc2)cc1,2.3

row,Structure (SMILES),"hERG current change (%, negative = inhibition) at 1uM [%]"
1,CN(C)c1nc(/C=C(\C#N)C(N)=O)c(Cl)n1-c1ccc(F)cc1,6.39
2,Cc1ccc(CNC(=O)CN(C(=O)C2(C)CC(=O)N=C3C=CC=CN32)c2ccc(F)cc2)cc1 (centres unmarked),8.44
3,O=C(O)/C=C/C(=O)Nc1ccc(SC(F)(F)F)cc1,10.1
4,COc1ccc(CC(=O)NCC(=O)N=Nc2c(O)[nH]c3ccccc23)cc1,14.6
5,COc1cc(/C=C/C(=O)OCC(=O)N2CC(=O)Nc3ccccc32)ccc1O,4.51
6,Cc1cc(C)c(NC2=CC(=O)CC(C)(C)C2)c(C#N)c1.Cl,-10.6
7,COC1C/C(=N\O)C2OC(c3ccccc3)OCC2O1 (centres unmarked),5.16
8,CC(C)Cc1cc(C(=O)Nc2ccccc2)c2ccccc2n1,14.7
9,Cc1ccc(S(=O)(=O)N/N=C2/CC(c3ccccc3)Oc3ccccc32)cc1 (centres unmarked),2.52
10,O=C1NC(=O)C(CCc2ccncc2)(CCc2ccncc2)C(=O)N1CCc1ccc(F)cc1,-77.1
11,COC(=O)Nc1sc(C(=O)N(C)C)c(C)c1C(=O)OC,10.5
12,CCOC(=O)C1=C(C)N=c2s/c(=C\c3cccn3C)c(=O)n2C1c1cccc(OC)c1OC (centres unmarked),9.51
13,Cc1cccc(C)c1NC(=O)CNC(=O)c1ccccc1OCc1ccccc1,7.34
14,COc1ccccc1NC(=O)C1CCCN1S(=O)(=O)c1cccc2nsnc12 (centres unmarked),16.8
15,O=C(N/N=C/c1cccc(Cl)c1)c1c(O)c2c([nH]c1=O)CCCC2,7.1
16,Cc1cccc(NC(=S)NNC(=S)NCc2ccccc2)c1,0.544
17,O=C(O)Cn1cnc2c(oc3ccccc32)c1=O,14.5
18,CC(=O)c1ccc(OCC(=O)N2CCN(S(=O)(=O)c3ccc(C)cc3C)CC2)cc1,-10.7
19,Cc1cc(NC(=S)Nc2ccccc2)ccc1Br,2.59
20,COc1cccc(NC(=O)Nc2ccc3nc(C)c(C)nc3c2)c1,8.78
21,C=CCNC(=O)c1onc(CSc2ccc(F)cc2)c1C(=O)NCCOC,-3.86
22,Cc1[nH]c2ccccc2c1/C=N/NC(=O)c1cc(-c2ccncc2)nc2ccccc12,1

row,Structure (SMILES),"hERG current change (%, negative = inhibition) at 1uM [%]"
1,CC1CN(C(=O)c2ccc(COc3ccc(C(C)C)cc3)o2)CC(C)O1 (centres unmarked),6.41
2,CCN1C(=O)[C@@H]2[C@@H](c3ccc(SC4CCCCC4)cc3)N3CCCC[C@@]3(C(=O)OC)[C@@H]2C1=O.O=C(O)C(F)(F)F,9.18
3,COc1ccc(C(=O)OCC(=O)NC2CC2)cc1S(=O)(=O)Nc1ccc(C)cc1,8.55
4,COc1ccc(CC(=O)NCC2CCCN(Cc3ccccc3OC)C2)cc1 (centres unmarked),16.5
5,COc1ccc([C@H](C)NC[C@H](O)c2ccc(O)c(NC=O)c2)cc1.O=C(O)/C=C/C(=O)O,7.73
6,Cc1onc(-c2c(F)cccc2Cl)c1C(=O)N=C(N)N1CC(C)OC(C)C1 (centres unmarked),4.11
7,CC(C)(C)OC(=O)NCC1CCC(C(=O)NC[C@H](CC(=O)O)c2ccc(Cl)cc2)CC1 (some centres unmarked),15.6
8,Cc1ccc(NC(=O)c2cc(N3C(=O)CCC3=O)ccc2N2CCCCC2)cc1,13.6
9,Cc1c(C=O)c2ccccc2n1Cc1ccc([N+](=O)[O-])cc1,-24.7
10,Cn1c(N)c(C(=O)COC(=O)C2(c3cccc(F)c3)CCCC2)c(=O)n(C)c1=O,4.85
11,Brc1ccc(Nc2nc(-c3cccnc3)cs2)cc1,3.42
12,CSc1ccc(N2CCN(CCCNC(=O)Nc3ccccc3F)CC2)cc1,-5
13,CN(C)S(=O)(=O)c1ccc(NC(=O)N2CCN(c3ccccc3)CC2)cc1,9.53
14,C=CCOc1ccccc1/C=N/n1nnnc1N,3.5
15,Cn1nc(C(F)(F)F)c(CN2CC(C)(C)C2=O)c1N1CCOCC1,14.3
16,CCOc1ccc(CNc2ccc(N3CCOCC3)c(C(=O)O)c2)cc1,12.3
17,O=C(NCc1cccs1)C(=O)NCC1OCCCN1S(=O)(=O)c1cccs1 (centres unmarked),1.05
18,Cl.O=c1cn[nH]c2ccccc12,-2.68
19,COc1cc2oc(=O)ccc2cc1[C@H](O)[C@@H](O)C(C)(C)O,13.2
20,CCOC(=O)c1cnn(-c2ccc(Cl)cc2)c1C1CCN(C(=O)OC(C)(C)C)CC1,9.66
21,CC(COC(=O)c1ccccc1)(COC(=O)c1ccccc1)/[N+]([O-])=C/c1ccccc1,9.2
22,CC(C)C(=O)c1cn(CC(=O)NCc2ccc3c(c2)OCO3)c2ccccc12,16.7

row,Structure (SMILES),"hERG current change (%, negative = inhibition) at 1uM [%]"
1,CCc1ccccc1NC(=O)CNC1CCCCC1.[O-][Cl+3]([O-])([O-])O,11.6
2,Nc1ccc(C(=O)N2CCN(S(=O)(=O)c3ccc(Cl)cc3)CC2)cc1[N+](=O)[O-],-4.43
3,O=C(C1CCCCC1)N1CCN(S(=O)(=O)c2cccc([N+](=O)[O-])c2)CC1,3.63
4,CC(C)c1nc2sc3c(NCc4ccco4)ncnc3c2c2c1COC(C)(C)C2,-7.83
5,O=C1C2CCCN2C(=O)N1CCCCN1CCN(c2ccc(F)cc2)CC1 (centres unmarked),-10
6,CCCc1nnc(SCC(=O)Nc2cc(C)on2)n1CCOC,13.2
7,Fc1ccc(NC(=S)N2CCc3ccccc32)cc1,12.4
8,Clc1ccccc1-c1nc(-c2cccnc2)no1,12.4
9,O=C1c2ccccc2C(=O)N1CCCn1nnc(-c2ccc(N3CCOCC3)cc2)n1,8.3
10,COc1ccc2[nH]c3c(=O)n(Cc4ccc(C(=O)N5CCCCCC5)cc4)c(=S)[nH]c3c2c1,5.1
11,O=C1C2=C(c3ccccc31)[N+](=O)C1CCCCC1N2[O-] (centres unmarked),-7.07
12,O=C(CN1C(=O)NC(Cc2c[nH]c3ccccc23)C1=O)Nc1cccc(S(=O)(=O)N2CCOCC2)c1 (centres unmarked),12.1
13,COc1ccc(N(CC(=O)NC2CCCC2)C(=O)Cn2nnc(-c3ccc(C)cc3)n2)cc1OC,10.1
14,CCCN1CCN(CCCNC(=O)Cn2nc(-c3ccccc3)ccc2=O)CC1,-3.23
15,Cc1ccc(CNC(=O)CCC(=O)c2cccs2)cc1,0.701
16,CCOC(=O)C1C(c2ccc(O)c(OCC)c2)NC(=S)NC1(O)C(F)(F)F (centres unmarked),-6.98
17,O=c1c2c(nc3cc(-c4cccc(Cl)c4)[nH]n13)CCC2,6.34
18,Fc1ccccc1NC(=S)NCc1ccc(Cl)cc1,23.1
19,Cc1nn(-c2ccccc2)nc1C(=O)NNC(=O)c1cccc2ccccc12,4.74
20,O=C(N/N=C/c1ccc(O)c(Br)c1)c1cc2c(ccc3ccccc32)o1,10.9
